From the supplement of paper PMC12217912
Some of the results follow. The full chains were built here from the parent and the listed change. Inactive controls read about 0.05.

B1: TEV protease; numbered along this chain (parent)
chain: MGESLFKGPRDYNPISSSICHLTNESDGHTTSLYGIGFGPFIITNKHLFRRNNGTLVVQSLHGVFKVKDTTTLQQHLVDGRDMIIIRMPKDFPPFPQKLKFREPQREERICLVTTNFQTKSMSSMVSDTSCTFPSGDGIFWKHWIQTKDGQCGSPLVSTRDGFIVGIHSASNFTNTNNYFTSVPKNFMELLTNQEAQQWVSGWRLNADSVLWGGHKVFMVKPEEPFQPVKEATQL

Variants of: B1
Test: raw area under fraction-flipped curve 0-4 h after induction (AUC4h, not background-subtracted), DNA-recorder readout of cleavage of the substrate (dimensionless); higher = more cleavage of the substrate by the protease variant
Conditions: temperature: 34 °C; time window: 0-4 h after rhamnose induction
Protocol: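 In vivo DNA recorder in E. coli TOP10(DE3) ΔrhaA at 34 °C. Each TEVp single-site mutant (parent TEVp 0) is paired with a single-site variant of the 7-mer TEVs (canonical ENLYFQ|S). The substrate sits between flexible linkers in a Bxb1-sfGFP-TEVs-SsrA fusion, so cleavage stabilises Bxb1 and speeds flipping of a recombination array, read by NGS. The value is the raw area under the fraction-flipped curve over 0-4 h after rhamnose induction (AUC4h), with ≥20 reads per time point. It is not background-subtracted; inactive controls average about 0.047.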
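Further: Bxb1 expression induced with 0.2% (w/v) L-rhamnose at OD600 near 0.5, cultures sampled hourly, flipped fraction per protease–substrate barcode pair counted by paired-end Illumina sequencing.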

Variant | area with substrate ENLYFAS | area with substrate ENLYFCS | area with substrate ENLYFDS | area with substrate ENLYFES | area with substrate ENLYFFS | area with substrate ENLYFHS | area with substrate ENLYFIS | area with substrate ENLYFKS | area with substrate ENLYFLS | area with substrate ENLYFMS | area with substrate ENLYFNS | area with substrate ENLYFPS | area with substrate ENLYFRS | area with substrate ENLYFSS | area with substrate ENLYFTS | area with substrate ENLYFVS | area with substrate ENLYFYS | area with substrate ENLYFGS | area with substrate ENLYFWS
L33N | 0.0573 | 0.0645 | 0.0508 | 0.11 | 0.0617 | 0.0519 | 0.055 | 0.0482 | 0.0683 | 0.0565 | 0.0648 | 0.053 | 0.0666 | 0.0615 | 0.0666 | 0.0548 | 0.0723 |  | 
E25K | 0.0604 | 0.0434 | 0.0562 | 0.0619 | 0.0641 | 0.0546 | 0.0564 | 0.055 | 0.0539 | 0.0366 |  | 0.0687 | 0.046 | 0.0626 | 0.0624 | 0.0707 | 0.0571 | 0.0601 | 0.0563
N24R | 0.0544 | 0.0556 |  | 0.0653 | 0.0721 | 0.0533 | 0.0583 | 0.0529 | 0.0566 | 0.0466 | 0.0511 | 0.0227 | 0.0612 |  | 0.0487 | 0.0751 | 0.0545 |  | 
N24T | 0.0598 | 0.0489 |  | 0.0657 | 0.0606 |  | 0.0605 | 0.0649 | 0.0695 | 0.0401 |  | 0.0528 | 0.0577 |  | 0.0553 |  | 0.0571 |  | 0.0677
N24Q | 0.0572 | 0.0594 |  | 0.0658 | 0.0604 | 0.0362 | 0.0601 | 0.0695 |  | 0.0633 | 0.0571 | 0.0649 | 0.0497 | 0.0656 | 0.0616 |  |  | 0.0524 | 
N24W | 0.0507 | 0.0433 | 0.0645 | 0.0604 | 0.0685 | 0.06 | 0.0636 | 0.0584 | 0.0356 | 0.0609 | 0.0695 | 0.0641 | 0.0516 | 0.0563 | 0.0575 | 0.0597 | 0.0717 |  | 0.0945
N24H | 0.0631 | 0.0427 |  |  | 0.0727 | 0.0546 | 0.0535 |  |  | 0.0557 | 0.0674 | 0.0565 | 0.0497 |  | 0.0614 |  |  |  | 
G28L | 0.0481 | 0.0642 | 0.0596 | 0.0641 | 0.0616 | 0.0672 | 0.0534 | 0.0586 |  | 0.0562 |  | 0.0475 | 0.073 | 0.0526 | 0.0571 | 0.0634 | 0.0612 | 0.0604 | 0.058
G28T | 0.0579 |  |  | 0.0592 | 0.0904 | 0.047 | 0.0461 | 0.0559 |  | 0.066 | 0.051 | 0.0462 | 0.0614 |  | 0.0477 |  | 0.0634 | 0.0506 | 0.0537
T30S | 0.0568 | 0.0503 | 0.0687 | 0.0588 | 0.0674 | 0.0766 | 0.0586 | 0.0676 | 0.0453 | 0.0574 | 0.0643 | 0.062 | 0.0608 |  | 0.0656 | 0.0606 | 0.0343 | 0.0447 | 
T31E | 0.0721 | 0.0489 |  | 0.0704 | 0.0745 |  | 0.0431 | 0.063 | 0.0703 | 0.056 | 0.0631 | 0.059 | 0.0608 | 0.0661 | 0.0592 | 0.0485 |  |  | 0.0562
G39A | 0.0617 |  | 0.0596 | 0.0386 | 0.0383 | 0.049 | 0.0352 | 0.0365 | 0.0331 | 0.0347 | 0.0435 | 0.0442 | 0.047 |  | 0.0659 |  |  |  | 0.0333
S32Q | 0.0534 |  |  | 0.0813 | 0.0841 | 0.0814 | 0.0647 | 0.0428 |  | 0.0629 | 0.065 | 0.0513 |  | 0.0615 |  | 0.0463 |  | 0.0389 | 0.0574
S32G | 0.0565 | 0.0456 | 0.0611 | 0.0524 | 0.0668 |  | 0.0647 | 0.0677 | 0.0473 | 0.0587 | 0.0633 | 0.05 |  | 0.0608 | 0.0554 |  | 0.0607 | 0.0725 | 0.0579
S32D | 0.0594 | 0.0661 | 0.0484 | 0.0634 | 0.057 | 0.0236 | 0.0489 | 0.0529 |  | 0.0561 | 0.0303 | 0.0449 | 0.0475 |  | 0.0556 |  |  | 0.0618 | 0.0576
S32R | 0.0634 |  | 0.0492 | 0.0651 | 0.0626 | 0.0533 | 0.0541 | 0.0446 |  | 0.0561 | 0.0754 | 0.064 | 0.0739 | 0.0431 | 0.0554 |  | 0.063 |  | 0.0432
S32A | 0.0489 | 0.0601 | 0.0502 | 0.0599 | 0.0688 | 0.0889 | 0.0537 | 0.0586 |  | 0.0706 | 0.0692 | 0.0604 | 0.0543 |  | 0.0604 | 0.0742 |  | 0.0816 | 0.0605
S32E | 0.0575 | 0.0486 | 0.061 |  | 0.0832 |  | 0.0594 | 0.0648 | 0.0641 | 0.0663 | 0.0699 | 0.0572 | 0.0563 | 0.0671 | 0.059 | 0.0631 | 0.0725 | 0.0581 | 
S32L | 0.0543 | 0.0275 | 0.0507 | 0.075 | 0.0806 | 0.0511 | 0.0543 | 0.0474 | 0.0611 | 0.0765 | 0.0643 | 0.052 | 0.068 | 0.0675 | 0.0456 | 0.0463 | 0.0614 | 0.0855 | 0.0598
S32W | 0.0597 | 0.0702 | 0.0691 | 0.0792 | 0.0593 | 0.0631 | 0.0536 |  |  | 0.0618 | 0.0738 | 0.0597 | 0.0546 | 0.0605 |  | 0.0262 |  | 0.0503 | 0.053
S32M | 0.0783 |  |  | 0.0574 |  | 0.0563 | 0.047 | 0.0632 |  | 0.0702 | 0.0745 |  | 0.0447 | 0.0596 |  |  | 0.0655 | 0.0569 | 0.0507
D27P | 0.0483 | 0.0536 | 0.0557 | 0.0684 |  | 0.0698 | 0.054 | 0.0552 | 0.0733 |  | 0.0479 | 0.0626 |  | 0.0662 | 0.0652 |  | 0.0615 |  | 
T44F | 0.0506 | 0.0507 |  | 0.0588 | 0.0574 |  | 0.0479 | 0.0554 |  | 0.0459 | 0.0474 | 0.0486 | 0.0506 | 0.0472 | 0.0519 |  | 0.0579 |  | 0.0469
T44A | 0.0598 | 0.0337 |  |  | 0.064 |  | 0.0577 | 0.06 | 0.0478 | 0.0631 | 0.0507 | 0.0571 |  | 0.0576 | 0.0324 |  | 0.0443 | 0.0648 | 0.0529
